The record followed here is the supplement of paper PMC4967469.

The term IC50 denotes the point on the concentration scale where inhibition reaches its midpoint.

By IC50 is meant the dose at which the fit gives 50% viability; fits outside the tested doses are given as limits. AUC sums up the same curve from the lowest dose to the 256-fold higher top dose; values near 1 show little effect.

Compound in this assay: CC[C@H](Nc1ncnc2[nH]cnc12)c1nc2cccc(F)c2c(=O)n1-c1ccccc1 [CAL-101]
Kind of assay: Viability of human cancer cell lines after 72 h of drug (GDSC screen). Here is the method: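 Human cancer cell lines in 384-well plates, medium with 10% serum, drug for 72 h over a 256-fold dose range (nine 2-fold or five 4-fold steps up to the top dose). Adherent lines were fixed and stained with the nucleic acid dye Syto60, suspension lines read with resazurin; signal relative to control wells, capped at 0 and 100%. One two-parameter sigmoid per drug and line, fitted in a mixed model over all curves with the slope shared within a line.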

As for “MS751 (cervix, adherent, top dose 20 µM)”, the AUC turned out to be 0.983 and the IC50 is over 20 µM.
As for “MS-1 (small cell lung carcinoma, suspension, top dose 20 µM)”, the AUC is 0.963 and the IC50 was over 20 µM.
With “MSTO-211H (mesothelioma, adherent, top dose 20 µM)”, the AUC is 0.989 and the 50% inhibitory concentration (IC50) was over 20 µM.
Take “MY-M12 (leukaemia, suspension, top dose 20 µM)”: the AUC was 0.923 and the IC50 was over 20 µM.
For “MZ1-PC (pancreas, adherent, top dose 20 µM)”, in that order: 0.926 and over 20 µM.
Regarding “MZ2-MEL (melanoma, adherent, top dose 20 µM)”, the AUC was determined as 0.935 and the IC50 was over 20 µM.
As to “MZ7-mel (melanoma, adherent, top dose 20 µM)”, the AUC is 0.969 and the IC50 is over 20 µM.
Turning to “Mewo (melanoma, adherent, top dose 20 µM)”, the AUC came to 0.982 and the IC50 was over 20 µM.
For “Mo-T (hairy cell leukaemia, suspension, top dose 20 µM)”, in that order: 0.782 and 8.53 µM.
Consider “NALM-6 (B-cell leukaemia, suspension, top dose 20 µM)”, for which the AUC turned out to be 0.612 and the IC50 is 2.41 µM.
Turning to “NAMALWA (Burkitt lymphoma, suspension, top dose 20 µM)”, the AUC was found to be 0.894 and the IC50 was 17.4 µM.
For the cell line “NB5 (neuroblastoma, adherent, top dose 20 µM)”, the AUC came to 0.909 and the IC50 is over 20 µM.
With “NB6 (neuroblastoma, adherent, top dose 20 µM)”, the AUC turned out to be 0.929 and the IC50 is over 20 µM.
Regarding “NB7 (neuroblastoma, adherent, top dose 20 µM)”, the AUC stood at 0.974 and the IC50 was over 20 µM.
Turning to “NB10 (neuroblastoma, adherent, top dose 20 µM)”, the AUC stood at 0.985 and the IC50 was over 20 µM.
With “NB12 (neuroblastoma, adherent, top dose 20 µM)”, the AUC came out at 0.955 and the IC50 was over 20 µM.
For “NB13 (neuroblastoma, adherent, top dose 20 µM)”, the AUC came out at 0.986 and the IC50 was over 20 µM.
“NB14 (neuroblastoma, adherent, top dose 20 µM)”: the AUC amounted to 0.989 and the IC50 is over 20 µM.
For “NB17 (neuroblastoma, adherent, top dose 20 µM)”, the AUC worked out at 0.964 and the IC50 is over 20 µM.
Turning to “NB69 (neuroblastoma, adherent, top dose 20 µM)”, the AUC is 0.914 and the IC50 is over 20 µM.
For “NB(TU)1-10 (neuroblastoma, adherent, top dose 20 µM)”, in that order: 0.992 and over 20 µM.
Turning to “NB-4 (acute myeloid leukaemia, suspension, top dose 20 µM)”, the AUC came out at 0.835.
As to “NCC021 (kidney, adherent, top dose 20 µM)”, the AUC stood at 0.852 and the IC50 was found to be 19.7 µM.
For “NCI-H23 (lung adenocarcinoma, adherent, top dose 20 µM)”, in that order: 0.988 and over 20 µM.
For “NCI-H28 (mesothelioma, adherent, top dose 20 µM)”, the AUC is 0.978 and the IC50 was over 20 µM.
Consider “NCI-H64 (small cell lung carcinoma, suspension, top dose 20 µM)”, for which the AUC amounted to 0.897 and the half-inhibitory concentration (IC50) is 13.5 µM.
For “NCI-H69 (small cell lung carcinoma, suspension, top dose 20 µM)”, in that order: 0.938 and over 20 µM.
For “NCI-H82 (small cell lung carcinoma, suspension, top dose 20 µM)”, in that order: 0.975 and over 20 µM.
Turning to “NCI-H187 (small cell lung carcinoma, suspension, top dose 20 µM)”, the AUC is 0.948 and the IC50 was over 20 µM.
For “NCI-H196 (small cell lung carcinoma, adherent, top dose 20 µM)”, in that order: 0.879 and over 20 µM.
In the case of “NCI-H209 (small cell lung carcinoma, suspension, top dose 20 µM)”, the AUC was 0.976 and the 50% inhibitory concentration (IC50) is over 20 µM.
As to “NCI-H211 (small cell lung carcinoma, adherent, top dose 20 µM)”, the AUC is 0.959 and the IC50 is over 20 µM.
For “NCI-H226 (lung squamous cell carcinoma, adherent, top dose 20 µM)”, in that order: 0.967 and over 20 µM.
On to “NCI-H292 (lung adenocarcinoma, adherent, top dose 20 µM)”, for which the AUC was found to be 0.911 and the IC50 is over 20 µM.
Take “NCI-H322M (lung adenocarcinoma, suspension, top dose 20 µM)”: the AUC was 0.966 and the IC50 is over 20 µM.
“NCI-H345 (small cell lung carcinoma, suspension, top dose 20 µM)”: the AUC worked out at 0.989 and the IC50 was over 20 µM.
For “NCI-H358 (lung adenocarcinoma, adherent, top dose 20 µM)”, in that order: 0.944 and over 20 µM.
Turning to “NCI-H441 (lung adenocarcinoma, adherent, top dose 20 µM)”, the AUC is 0.979 and the IC50 is over 20 µM.
As for “NCI-H446 (small cell lung carcinoma, semi-adherent, top dose 20 µM)”, the AUC came to 0.913 and the IC50 was over 20 µM.
For “NCI-H460 (large cell lung carcinoma, adherent, top dose 20 µM)”, in that order: 0.989 and over 20 µM.
Consider “NCI-H510A (small cell lung carcinoma, semi-adherent, top dose 20 µM)”, for which the AUC stood at 0.985 and the IC50 was over 20 µM.
With “NCI-H520 (lung squamous cell carcinoma, adherent, top dose 20 µM)”, the AUC worked out at 0.793 and the IC50 came to 9.51 µM.
With “NCI-H522 (lung adenocarcinoma, adherent, top dose 20 µM)”, the AUC worked out at 0.969 and the IC50 is over 20 µM.
Regarding “NCI-H524 (small cell lung carcinoma, suspension, top dose 20 µM)”, the AUC was determined as 0.987 and the IC50 was over 20 µM.
With “NCI-H526 (small cell lung carcinoma, suspension, top dose 20 µM)”, the AUC was determined as 0.962 and the half-inhibitory concentration (IC50) is over 20 µM.
As for “NCI-H596 (lung adenocarcinoma, adherent, top dose 20 µM)”, the AUC was 0.968 and the IC50 was over 20 µM.
For the cell line “NCI-H630 (large intestine, adherent, top dose 20 µM)”, the AUC was 0.967 and the IC50 was over 20 µM.
For the cell line “NCI-H647 (non-small cell lung carcinoma, adherent, top dose 20 µM)”, the AUC amounted to 0.869 and the IC50 worked out at 19.9 µM.
As for “NCI-H650 (lung adenocarcinoma, adherent, top dose 20 µM)”, the AUC turned out to be 0.965 and the IC50 was over 20 µM.
As to “NCI-H661 (large cell lung carcinoma, adherent, top dose 20 µM)”, the AUC came out at 0.952 and the IC50 is over 20 µM.
“NCI-H716 (large intestine, suspension, top dose 20 µM)”: the AUC was 0.958 and the IC50 is over 20 µM.
Regarding “NCI-H720 (lung carcinoid, suspension, top dose 20 µM)”, the AUC was 0.963 and the IC50 is over 20 µM.
For “NCI-H727 (lung carcinoid, adherent, top dose 20 µM)”, in that order: 0.97 and over 20 µM.
As to “NCI-H747 (large intestine, adherent, top dose 20 µM)”, the AUC amounted to 0.808 and the half-maximal inhibitory concentration (IC50) worked out at 13.2 µM.
On to “NCI-H748 (small cell lung carcinoma, suspension, top dose 20 µM)”, for which the AUC turned out to be 0.976 and the IC50 is over 20 µM.
Turning to “NCI-H810 (large cell lung carcinoma, adherent, top dose 20 µM)”, the AUC stood at 0.973 and the IC50 is over 20 µM.
With “NCI-H838 (lung adenocarcinoma, adherent, top dose 20 µM)”, the AUC came out at 0.984 and the IC50 is over 20 µM.
Take “NCI-H841 (small cell lung carcinoma, adherent, top dose 20 µM)”: the AUC was determined as 0.978 and the IC50 is over 20 µM.
Take “NCI-H847 (small cell lung carcinoma, adherent, top dose 20 µM)”: the AUC was 0.993 and the IC50 was over 20 µM.
As for “NCI-H1048 (small cell lung carcinoma, adherent, top dose 20 µM)”, the AUC turned out to be 0.952 and the IC50 was over 20 µM.
Consider “NCI-H1092 (small cell lung carcinoma, suspension, top dose 20 µM)”, for which the AUC worked out at 0.985 and the IC50 was over 20 µM.
As to “NCI-H1155 (large cell lung carcinoma, suspension, top dose 20 µM)”, the AUC was determined as 0.991 and the IC50 was over 20 µM.
For the cell line “NCI-H1299 (large cell lung carcinoma, adherent, top dose 20 µM)”, the AUC came out at 0.953 and the IC50 is over 20 µM.
